The campaign covered roughly 150,000 compounds. About 540 (0.36%) showed an effect of 50% or more. This is one part of the list.
What follows are molecules tested on Plasmodium falciparum (assay: Primary screen in NF54 nanoGlo assay, in single point, at 2uM, 72h; a lower Z score goes with more inhibition). Settings: timepoint 72 hour.
Assay type: functional, Erythrocyte

Compound	% Inhibition	Z score
CCOC(=O)c1nc(N(CC)c2ccccc2)c2ccccc2n1	-4%	0.71
Cn1nccc1CNC(=O)CN1C(=O)COc2ccc(Cl)cc21	-13%	1.46
Cc1cccc2nc(NCc3cn(C(C)C)c(=O)[nH]c3=O)sc12	-9%	1.78
CC(C)Nc1cc(-c2cccnc2)nc(N)n1	-20%	3.18
CC(=O)Nc1c(-c2ccccc2)c(C)nn1-c1ccc(C(=O)N2CCc3ccccc3C2)cc1	27%	-3.12
CCc1nc(CN2CCC[C@H]2C(F)(F)F)no1	-5%	0.9
CC(C)CCc1noc(CNC2(c3nccs3)CCCC2)n1	1%	-0.13
Cc1nn(CCOc2ccccc2)c(=O)n1-c1ccccc1F	1%	-0.16
CNC(=O)c1noc(CN(C)CCn2ccnc2C)n1	21%	-3.92
Cc1cc(NCc2cc(C(C)C)on2)nc(N(C)C)n1	-2%	0.4
C[C@@H](Cn1cncn1)c1nc(Cc2cccs2)n[nH]1	-5%	0.93
Nc1nnc(-c2nnnn2-c2ccccc2)o1	4%	-0.58
Cc1cc(OCCOCCN(C)C)ccc1Cl	4%	-0.58
Cc1ccc2c(c1)nc(-c1cnc(N3CCCC3)nc1)n2C	-3%	0.31
Nc1nc(C2CC2)nc(N2CCN(C(=O)C[C@H]3CCOC3)CC2)n1	-8%	1.46
O=C1NCCCC[C@@H]1Nc1nc2ccccc2o1	-7%	1.1
Cc1ccc(CCNCC2(S(=O)(=O)NC(C)(C)C)CC2)cn1	14%	-1.65
O=S(=O)(NC1CC(NCC(F)(F)F)C1)c1cccc(F)c1 (configuration not stated)	-11%	1.43
CC[n+]1c(/C=C/N(C)c2ccccc2)oc2ccccc21	80%	-10.29
CCN(CC)S(=O)(=O)N1CCc2nc[nH]c2C12CCC2	-8%	1.43
Cc1cnc(CCNC(=O)NC(C)C(C)CO)s1 (configuration not stated)	-17%	2.22
CC[C@H](C)N(Cc1ccc(OS(=O)(=O)c2cccc(C(F)(F)F)c2)cc1)C(=O)Nc1cccc(OC)c1	-14%	1.55

Compound	% Inhibition	Z score
Cn1cc(S(=O)(=O)NC(=O)CCc2ccsc2)c2ccccc21	-10%	1.44
COc1ccc(-c2nnc(-c3cccnc3NCCN3CCCCCC3)o2)cc1	-7%	1.27
CC1=C[C@@H](CNC(C)C)[C@H](C(C)C)C[C@H]1Cc1nnc(-c2ccncc2)o1	18%	-2.13
Cc1nc(C(=O)Nc2ccccc2O)c(Cc2ccccc2)s1	-4%	0.55
N#CC1(C(=O)NCC2CN(C(=O)c3ccccc3)C3CCN2C3)CCCCC1 (configuration not stated)	-6%	0.81
CCCn1c(=O)sc2cc(S(=O)(=O)N3CCC(C(=O)Nc4ccc(C(C)C)cc4)CC3)ccc21	-19%	2.28
CCOc1ccc(CN2CCN3C(=O)OC[C@H]3C2)cc1Cl	-13%	1.17
Cc1ccc(CCNC(=O)NC[C@H](O)COc2ccc(Cl)c(C)c2)o1	-16%	1.5
CC1(C)[C@@H](O)CCN1C(=O)Nc1cc2c(nn1)CCC2	19%	-2.45
Clc1cccc(Cn2ccnc2-c2cccs2)c1	-7%	0.93
Cc1nn(C)c(C)c1CNC(=O)CC1(N2Cc3ccccc3C2=O)CCOCC1	-8%	1.04
Cc1c(S(=O)(=O)Nc2cc(C3C(C)(C)C3(C)C)n[nH]2)cnn1C	-7%	0.68
C[C@H](OC(=O)c1cc(Cl)cc(Cl)c1)C(=O)NC(N)=O	-6%	0.9
O=C(NCc1ccc(F)cc1)c1cnc(-c2ccc(F)cc2)nc1N1CCc2ccccc2C1	7%	-1.02
O=C(Nc1ccn2nccc2c1)c1ccc2ncsc2c1	-3%	0.41
CC(C)c1nc(CN(C)C[C@@H]2CCCN3CCCC[C@H]23)no1	3%	-0.48
Cc1ccn([C@@H](C)CC(=O)NCCc2sccc2C)n1	-9%	1.81
Cc1nc([C@@H]2CCCN2c2ccnc(-c3nccs3)n2)[nH]c1C	-2%	0.38
CCc1nc(N2CCC3(CC2)C[C@H](c2ccccc2)CN(C2CC2)C3)no1	-8%	1.35
Cc1ncoc1C(=O)N1CCC(Cc2ccc(CN3CCCC3)cc2)CC1	-8%	1.52
C[C@](O)(CNC(=O)c1cccc(-c2cnco2)c1)CN1CCOCC1	-2%	0.26
Cc1ccc(C(=O)N(Cc2cccc(Br)c2)[C@H]2CCS(=O)(=O)C2)cc1	-12%	1.05

Compound	% Inhibition	Z score
O=C1CN(C(=O)N[C@@H](Cc2ccccc2)C(=O)N2CCCCCC2)c2ccccc2N1	2%	-0.24
c1cnc2sc(CN3CCC[C@H]3c3ncc[nH]3)nc2c1	-5%	0.82
Cn1nnc(CNC(=O)N[C@H]2CC(C)(C)CCc3ccccc32)n1	-18%	1.74
Cc1cc(NC(=O)NCc2csc(C)n2)no1	-4%	0.58
Cc1ccc([C@H](CN2CCOCC2)NC(=O)c2cc(-c3ccco3)nc3onc(C)c23)cc1	-24%	2.87
CC[C@H](C)Oc1cc(-c2nc(CC(=O)NC)no2)ccn1	-15%	1.31
COc1cccc(NC(=O)C[C@H]2CCCN(c3cnn(CC4CC4)c(=O)c3)C2)c1	2%	-0.28
CCOCCOc1cc(C)ccc1CNc1nccn(C)c1=O	4%	-0.55
Cc1cc(S(=O)(=O)N2CC3CCCCC3C2)c(C)o1 (configuration not stated)	33%	-3.75
Cc1coc(C)c1C(=O)NC1(CO)CCOCC1	36%	-3.04
C[C@@H]1CN(C(=O)c2noc(-c3cccc(F)c3)n2)C[C@@]1(C)CN	-18%	3.23
Cc1ccsc1CN(C)c1cc([C@H]2CCCNC2)ncn1	-4%	0.56
CN(Cc1ccc(F)cc1)c1ncnc(Oc2ccc(F)cc2F)c1N	-4%	0.63
Cc1n[nH]c(C2CC2)c1C(=O)NCCCN1C[C@@H](C)O[C@@H](C)C1	-9%	0.89
Cc1cnc2c(C(=O)N(C)[C@@H](C)Cc3ncccc3C)cnn2c1	-4%	0.42
COc1ccc(CCC(=O)N2CCN=C2N2CCN(C)CC2)cc1	-2%	0.39
O=C(CCCc1ccc(O)c(F)c1)N1CC2(CCOC2)C1	-3%	0.37
c1ncc(-c2cn(Cc3ccoc3)nn2)cn1	-5%	0.83
Cc1ncc(S(N)(=O)=O)cc1C(=O)N(C)CCn1cccn1	-7%	0.88
Cc1nc(C)c(Cn2cc(COCc3ccccc3)nn2)s1	-11%	1.96
O=C(Cc1noc2ccccc12)N1CCN(C(=O)c2cnn3ccccc23)CC1	-11%	1.77
COc1ccc(-c2ccnc3cc(C(=O)Nc4cc(C)cc(C)c4)nn23)cc1OC	0%	-0.03

Compound	% Inhibition	Z score
Cc1[nH]c(-c2ccc(F)cc2)cc1C(=O)N1CCN(C2CCCCC2)CC1	-1%	0.23
Cc1nccn1CCCC(=O)N[C@H](C#N)c1cnn(-c2ccccc2)c1	-12%	1.71
O=C(Nc1cnn([C@H]2CCOC2)c1)c1cnccn1	18%	-2.32
Cc1ccccc1CC(=O)N[C@H]1CCCCNC1=O	0%	0.03
COCCN(CCOC)CC[C@@H]1CC[C@H](O)[C@@H](C(=O)N(C)Cc2ccccc2)O1	-7%	1.06
Cc1nc(-c2ccccc2)sc1NC(=O)Nc1cnn(C)c1	-8%	0.81
COC1CCC(N(C)C(=O)C2CC(=O)NC(C)C2)CC1 (configuration not stated)	-4%	0.51
Cc1n[nH]c(C)c1C(=O)N1CCC[C@@]2(C=Cc3ccccc3O2)CC1	-6%	1.28
COc1cccc(-c2nccn2-c2ccc3cn[nH]c3c2)c1OC	5%	-0.61
O=c1n(Cc2ccc(F)c(F)c2)nc(C2CCNCC2)n1Cc1ccccc1	-1%	0.08
CC(C)n1cnc(C(=O)N2CCN(Cc3ccccc3Cl)CC2)c1	-6%	1.2
Cc1noc(C)c1CCCNC(=O)c1ccc(N2CCC[C@@H]2CO)nc1	4%	-0.82
CC[C@@H](CO)N(Cc1ccc(C)s1)C(=O)c1csc(CN(C)C)n1	-5%	0.71
O=C1CC[C@H](NCc2ccc(OC(F)F)c(F)c2)C2(CCC2)N1	-8%	0.68
CNC(=O)C[C@H](C)NCc1coc2ccccc12	-6%	0.7
Cc1nc(C2CC2)oc1C(=O)N1CCCC1CC(O)c1cccs1 (configuration not stated)	-5%	0.72
CO[C@@H](c1ccccc1)c1nc(-c2c(C)ncc3c2CCNC3)no1	-7%	0.97
N#Cc1ccc(C(=O)NCc2ccc(-c3nc(C4CC4)no3)s2)c(F)c1	-4%	0.75
Cn1cccc1[C@H](CNC(=O)c1ccc2c(c1)OCO2)N1CCOCC1	-7%	1.21
Cc1sc(NC(=O)COc2ccc3ccccc3c2)nc1-c1ccccc1	-10%	1.66

Reference: ChEMBL document CHEMBL4888484, “Replenishing the malaria drug discovery pipeline: Screening and hit evaluation of the MMV Hit Generation Library 1 (HGL1) against asexual blood stage Plasmodium falciparum ,using a nano luciferase reporter read-out” (2022)
